# Source: ChEMBL document CHEMBL4888484, “Replenishing the malaria drug discovery pipeline: Screening and hit evaluation of the MMV Hit Generation Library 1 (HGL1) against asexual blood stage Plasmodium falciparum ,using a nano luciferase reporter read-out” (2022)
# Among all 150,000 compounds or so, about 540 (0.36%) showed an effect of 50% or more. This is one part of the list.
# System: Plasmodium falciparum
# Test: Primary screen in NF54 nanoGlo assay, in single point, at 2uM, 72h; a lower Z score goes with more inhibition
# Format: functional, Erythrocyte
# Conditions: timepoint 72 hour
Compound,% Inhibition [%],Z score
COc1cccc(C(=O)N2CCC3(CC2)C[C@@H](OCc2ccccc2)CCO3)c1,31,-1.12
COc1ccc(C(=O)Nc2ccc3c(c2)C(=O)N2CCC[C@H]2C(O)=N3)cc1OC,23,-3.48
CC(C)(NC(=O)c1nc2ccccc2cc1C1CC1)c1nccs1,-15,2.49
COc1cc(Br)cc(C)c1NC(=O)CCS(C)(=O)=O,-4,0.49
CCOc1ccc(CNC(=O)C2CCN(c3ccc(-c4cccc(C)c4)nn3)CC2)cc1OCC,-10,1.29
CCO[C@H]1COC[C@@H]1NC(=O)Cc1cccs1,1,-0.18
CCOc1ccc(S(=O)(=O)N2CCc3cc(S(=O)(=O)N4CCCC4)ccc32)cc1OCC,-11,1.69
CC(C)(C)OC(=O)NCCc1cc(=O)[nH][nH]1,-5,0.68
CC[C@@H](Cc1ccccc1)N(C)S(C)(=O)=O,1,-0.16
CCN1CCN(C(=O)Cn2nc(-c3ccccc3)c3ccccc32)CC1,-4,0.68
CC(C)Cc1nsc(NCCS(N)(=O)=O)n1,-12,1.61
CN1C[C@@H](C(=O)N2CCC(c3nccn3CC3CC3)CC2)NC1=O,3,-0.57
COc1ccccc1CNCC1CN(C(=O)OC(C)(C)C)C1,-1,0.16
COC(=O)c1cn(CCNC(=O)Nc2ccc(N(C)C)cn2)nn1,27,-3.9
CC(C)Cc1noc([C@H](C)NC(=O)N2CCNC(=O)CC2)n1,9,-1.53
Cn1cc(S(=O)(=O)N2CCO[C@H](C(=O)C3CC3)C2)cn1,-3,0.42
CC(NCC(c1ccco1)N1CCCC1)c1cc2n(n1)CCC2 (stereo unspecified),-5,0.63
O=C(NC[C@H]1CCCS1(=O)=O)c1cc(F)c[nH]1,11,-1.27
CCOc1ccccc1NC(=O)Cn1cccc1-c1nnc(C2CC2)o1,-14,2.46
C[C@@H](CC(=O)N1CC[S+]([O-])CC1)c1cccc(C(F)(F)F)c1,-11,1.14
Cc1cc2c(N3CCC(NCc4noc(C5CCC5)n4)CC3)ncnc2s1,-11,1.39

Compound,% Inhibition [%],Z score
COc1cccc(NC(=O)N2CCN(C(=O)CN3CCc4sccc4C3c3cccc(F)c3)CC2C)c1 (stereo unspecified),3,-0.4
O=C(CCc1nnc(C2CCCCC2)o1)NCc1ccc2c(c1)OCO2,-4,0.64
Cc1c(CN2CCN(C3CCN(C)CC3)[C@@H](CCO)C2)[nH]c2c(Cl)cccc12,13,-2.05
Cc1ccn2c(NC(=O)c3cccc(S(=O)(=O)N4CCOCC4)c3)c(-c3cccs3)nc2c1,-11,1.51
O[C@H](COc1ccc(Br)cc1)CN(Cc1ccccc1)Cc1ccccc1,-6,0.76
O=C(c1ccc(-n2cccn2)nc1)N1CCO[C@H](c2ccccc2)CC1,4,-0.47
CN(C(=O)c1cc(=O)[nH]c2ccccc12)[C@H]1CCCN(CCCc2ccccc2)C1,6,-0.88
CCN(CC)CCNCc1ccc(C)s1,-12,1.33
CCn1nc2n(c1=O)CCN(C(=O)c1ccnnc1)[C@@H]2c1ccccc1,-10,1.59
CCOC(=O)N1CCC2(CC1)N=C(c1ccccc1O)C[C@@H](c1ccccc1O)N2,-12,1.38
COc1ccc2c(c1)CCN(C[C@H]1CCOC1)C2,-1,0.26
Cc1c(Cl)cccc1NC(=O)NC[C@H](c1cccnc1)c1c[nH]c2ccccc12,-5,1.04
O=c1c[n+]([O-])c2ccccc2n1OCc1ccccn1,-13,1.79
CC[C@H]1C(=O)NCCN1c1c(C#N)c(=O)n(C)c(=O)n1C,-9,1.18
Cc1nc2c(c(=O)n1C)CN(C(=O)c1c[nH]nc1-c1ccccc1)C2,12,-1.7
Cc1cccc(NC(=O)N2CC(n3cc(C4CC4)nn3)C2)c1,6,-0.72
Cc1c(NC(=O)Cn2c(COc3ccccc3)nc3ccccc32)c(=O)n(-c2ccccc2)n1C,-17,3.23
CC(C)CCNC(=O)[C@@H]1COCCO1,-8,1.09
Cc1nsc(NCC2(O)CCCC2)n1,-9,1.13
CCN(C(=O)c1cc(C(C)C)n(C)n1)[C@@H](C)COC,-3,0.33
O=C(O)Cc1occc1C(=O)N1CCC2(CCCCC2)C1,13,-1.69

Compound,% Inhibition [%],Z score
CCn1cc(C(CC(=O)NC(C)CCc2ccccc2)c2cccc(Cl)c2)c2ccccc21 (stereo unspecified),-13,1.74
CC1(C)OCC[C@@H]1NCc1ccc(Cn2cccn2)cc1,-8,1.44
O=C(Nc1ccc(C2CC2)c(F)c1)N1CCC(Nc2nccs2)CC1,-10,1.32
COCCS(=O)(=O)N1CCN(c2cccc3[nH]cnc23)CC1,-5,1.02
Cc1ccc(NC(=O)Cn2cnc3c(C(N)=O)nsc3c2=O)c(C)c1,-20,2.65
O=S(=O)(NCC1(C2CC2)CCC1)c1cncc(Cl)c1,-9,0.97
COc1cccc(CC2(C(=O)O)CCN(c3ncnc4[nH]ccc34)CC2)c1,-9,1.05
O=C(Nc1ccc2c(c1)OCO2)c1cc(-c2cccc3ccccc23)[nH]n1,1,-0.15
Cn1cc(NC(=O)CN2CCC[C@H](C(=O)Cc3ccccc3)C2)cn1,1,-0.08
CCn1ncnc1-c1nccn1CCOc1ccccc1,-2,0.21
CCn1nnnc1NC(=O)N[C@@]1(C)CCOc2ccccc21,-4,0.64
Cc1ccc(OCC(=O)Nc2cc3ccccc3cc2NC(=O)COc2ccc(C)cc2)cc1,10,-1.23
Cc1nn(C)c(C)c1-c1cc(C(=O)N[C@@H](C)[C@H](O)c2ccccc2)n(C)n1,-5,0.9
Cc1[nH]cnc1CN1CCN(C)[C@H](c2ccccc2)C1,-2,0.43
COc1ccc(-c2noc(-c3nn(-c4ccc(C)c(C)c4)ccc3=O)n2)cc1OC,1,-0.19
CN(C)C(=O)C[C@H]1CN(Cc2cnn(C)n2)c2ccc(Cl)cc21,-3,0.41
CN1CCCN(C(=O)[C@@H]2CCCCC(=O)N2Cc2ccccc2)CC1,0,0.07
CC1CCCN(S(=O)(=O)NC(C)C(=O)Nc2ccccc2)C1 (stereo unspecified),-5,0.59
CC1CN(C2CC2)CC1NS(=O)(=O)CC1CCOCC1 (stereo unspecified),-5,0.7
Cn1c(C(=O)NCc2cccc(F)c2)c(N2CCCC2=O)c2cc(F)ccc21,4,-0.66
O=C1NCC2(CN(C(=O)c3cc(-c4ccc(F)cc4)n[nH]3)C2)N1,1,-0.16

Compound,% Inhibition [%],Z score
CCC[C@H]1CN(CC(N)=O)C[C@@H]1NC(=O)c1nn(C)c(C)c1Cl,-3,0.41
Cc1nn(-c2ccccc2)c2nc(C3CC3)nc(N3CCN(C(=O)c4cccc(F)c4)CC3)c12,-13,1.38
CCC(CC)n1nc(C)cc1C(=O)N1C[C@@H]2CS(=O)(=O)C[C@@H]2C1,-6,1
Cc1nn(C)cc1C(=O)N1CCCC[C@@H]1CCc1ccccc1,-1,0.17
Cc1nc(N2CCCCCCC2)ncc1[C@H](C)NCc1cnc(C)n1C,-7,1.23
COc1cccc(C(=O)Nc2ccc(OCc3nnc(-c4ccc(F)cc4)o3)cc2)c1OC,-11,1.31
O=C(NCCNC(=O)C(F)(F)F)[C@H]1C[C@H]2C=C[C@@H]1C2,-10,1.96
COc1cccc(COCc2ncc[nH]2)c1Cl,0,-0.02
CCCN1C[C@@H]2CC[C@H]1CN(C(=O)c1cnc(N3CCCCC3)nc1C)C2,-2,0.23
CCOc1ccc(C(=O)N(CCN(C)C)CC(=O)OC(C)(C)C)cc1,-2,0.3
Cc1ccc(N(C)S(=O)(=O)N2CCCC2)cc1Cl,-10,1.33
Cc1ccc([C@H](C)NC(=O)CCc2ccc3[nH]cnc3c2)cc1,-2,0.33
Cc1cc(F)ccc1N1CCC[C@H](N2CCCN(C(C)C)CC2)C1=O,-10,1.28
CO[C@H]1CCCOC12CCN(C(=O)Cn1[nH]c3ccccc3c1=O)CC2,-7,1.28
CCOc1ccccc1NC(=O)Cn1ccn2nc3c(c2c1=O)CCCC3,-18,1.69
CC1CN(C(=O)C2CC(C)(C)C2)CC(c2ccc(F)cc2)O1 (stereo unspecified),0,0.03
COc1ccc(CN(CC(=O)N2CCCc3ccccc32)[C@H]2CCS(=O)(=O)C2)cc1,9,-1.23
COc1cccc(CO[C@H]2CCCN(C(=O)c3cccc(Br)c3)C2)c1,15,-2.03
CN(C)C(=O)CCc1ncnn1C1CCCCC1,-2,0.38
Cc1nc([C@@]2(CC3CC3)CCCN(S(=O)(=O)c3cc(F)cc(F)c3)C2)no1,0,0.02
